Several values for one entry are separate records, joined by “and”; a condition that tells them apart may be missing. Equal entries are not always repeated.
Molecular target: T1, biotinylated truncated STAT6 (123-632)-avi (Homo sapiens, UniProt P42226)
T1 sequence (P42226 123-632 limits assumed): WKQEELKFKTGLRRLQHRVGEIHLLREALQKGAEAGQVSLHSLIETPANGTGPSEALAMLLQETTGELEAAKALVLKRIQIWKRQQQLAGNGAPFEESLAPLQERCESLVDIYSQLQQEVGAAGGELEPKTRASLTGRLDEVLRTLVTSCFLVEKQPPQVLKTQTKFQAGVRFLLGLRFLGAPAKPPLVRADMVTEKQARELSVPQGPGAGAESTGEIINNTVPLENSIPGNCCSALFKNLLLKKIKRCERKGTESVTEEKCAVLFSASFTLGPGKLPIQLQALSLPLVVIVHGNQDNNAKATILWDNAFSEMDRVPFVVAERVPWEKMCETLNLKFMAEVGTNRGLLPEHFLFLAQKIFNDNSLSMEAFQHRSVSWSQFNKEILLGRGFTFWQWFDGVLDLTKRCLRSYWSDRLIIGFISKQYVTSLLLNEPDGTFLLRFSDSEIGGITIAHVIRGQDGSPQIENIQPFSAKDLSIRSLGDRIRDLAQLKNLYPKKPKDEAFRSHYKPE
Assay: Homogenous Time-Resolved Fluorescence (HTRF) binding assay
Conditions: 0.15 nM biotinylated truncated STAT6 (123-632)-avi, 20 nM fluorescein-labeled probe

Compound	IC50 (30 minutes at room temperature)	IC50 (30 minutes room temperature)
COC(=O)C1CN(C(=O)c2cc3c(-c4ccccc4OC)cc(C4=CCCN(C(=O)CCn5ccnn5)C4)c(F)c3[nH]2)CC1C (stereo not drawn) [Example I-998]	< 100 nM	–
CCc1ccncc1-c1cc(C(=O)N2Cc3cnn(C)c3C2)cc2cc(C3=CCCN(C(=O)CCn4ccnn4)C3)n(CC3CC3)c12 [Example I-727]	< 100 nM	–
CCCOc1ncccc1-c1cc(C2=CCCN(C(=O)CCn3ccnn3)C2)c(F)c2[nH]c(C(=O)N3CCN(c4ncc(F)cc4OC)CC3)cc12 [Example I-652]	< 100 nM	–
CN(C)C(=O)c1cc2ccc(C3=CCCN(C(=O)C(CO)c4ccccc4)C3)cc2[nH]1 (stereo not drawn) [Example I-159]	10000 to 100000 nM	–
COc1cc(F)cnc1N1CCN(C(=O)c2cc3c(C4=CCCOC4)cc(C4=CCCN(C(=O)CCn5ccnn5)C4)c(F)c3[nH]2)CC1 [Example I-1126]	< 100 nM	–
Methyl 5-(3-(5-(2-(dimethylcarbamoyl)benzofuran-5-yl)-1,2,3,6-tetrahydropyridine-1-carbonyl)-2-formyl-1,2,3,4-tetrahydroisoquinolin-5-yl)pent-4-ynoate [Example I-802]	100 to 1000 nM	–
COc1ccccc1-c1cc(C2=CCCN(C(=O)CCn3ccnn3)C2)c(F)c2[nH]c(C(=O)N3CCN(c4cccn(C)c4=O)CC3)cc12 [Example I-1021]	< 100 nM	–
CN(C)C(=O)c1cc2cc(C3=CCCN(C(=O)CCn4ccnn4)C3)cc(-c3ccc4cncnc4c3)c2o1 [Example I-1089]	< 100 nM	–
CCOc1ccncc1-c1cc(C2=CCCN(C(=O)CCn3ccnn3)C2)c(F)c2[nH]c(C(=O)N3CCN(c4cncnc4OC)CC3)cc12 [Example I-470]	< 100 nM	–
CC(=O)N1CCC=C(c2cc(-c3ccccc3C(N)=O)c3cc(C(=O)N(C)C)[nH]c3c2F)C1 [Example I-1099]	100 to 1000 nM	–
CN(C)C(=O)c1cc2ccc(C3=CCCN(C(=O)CCc4cccc(C(N)=O)c4)C3)c(F)c2[nH]1 [Example I-1232]	–	100 to 1000 nM
Cc1cc(CC(=O)N2CCC=C(c3ccc4cc(C(=O)N(C)C)[nH]c4c3)C2)on1 [Example I-133]	1000 to 10000 nM	–
O=C(CCn1ccnn1)N1CCC=C(c2ccc3oc(-c4cnoc4)cc3c2)C1 [Example I-1282]	–	10000 to 100000 nM
COc1ccncc1-c1cc(C2=CCCN(C(=O)CCn3ccnn3)C2)c(F)c2[nH]c(C(=O)N3CCN(c4ccc(C#N)cc4OC)CC3)cc12 [Example I-474]	< 100 nM	–
COc1cc(F)cnc1N1CCN(C(=O)c2cc3c(-c4cccc(C5(C#N)CC5)c4)cc(C4=CCCN(C(=O)CCn5ccnn5)C4)c(F)c3[nH]2)CC1 [Example I-649]	< 100 nM	–
COc1ccccc1-c1cc(C2=CCCN(C(=O)CCn3ccnn3)C2)c(F)c2[nH]c(C(=O)N3CCC(n4cccn4)CC3)cc12 [Example I-1412]	–	< 100 nM
CN(C)C(=O)c1cc2cc(C3=CCCN(C(=O)Cc4cncnc4)C3)ccc2o1 [Example I-293]	10000 to 100000 nM	–
COc1ccccc1-c1cc(C2=CCCN(C(=O)CCn3ccnn3)C2)c(F)c2[nH]c(C(=O)N3CCN(C4CC5CCC4C5)CC3)cc12 (stereo not drawn) [Example I-1181]	< 100 nM	–
CN(C)C(=O)c1cc2cc(C3=CCCN(C(=O)CCn4ccnn4)C3)cc(NCc3ccc(C#N)cc3)c2o1 [Example I-895]	< 100 nM	–
CCOc1ccncc1-c1cc(C2=CCCN(C(=O)CCn3ccnn3)C2)c(F)c2[nH]c(C(=O)N3CCN(c4ncncc4OC)CC3)cc12 [Example I-1108]	< 100 nM	–
COc1cc(N2CCNCC2)ccc1-c1cc(C2=CCCN(C(=O)CCn3ccnn3)C2)c(F)c2[nH]c(C(=O)N(C)C)cc12 [Example I-1527]	–	< 100 nM
CCc1cc(C)ncc1-c1cc(C2=CCCN(C(=O)C(C)C(=O)O)C2)c(F)c2[nH]c(C(=O)N3CCN(c4ncc(F)cc4OC)CC3)cc12 (stereo not drawn) [Example I-808, 3-(3-(4-(4-ethyl-6-methylpyridin-3-yl)-7-fluoro-2-(4-(5-fluoro-3-methoxypyridin-2-yl)piperazine-1-carbonyl)-1H-indol-6-yl)-5,6-dihydropyridin-1(2H)-yl)-2-methyl-3-oxopropanoic acid]	< 100 nM and 100 to 1000 nM	–
CN(C)C(=O)c1cc2cc(C3=CCCN(C(=O)Cc4ccc5c(c4)OCCO5)C3)ccc2o1 [Example I-306]	10000 to 100000 nM	–
CN(C)C(=O)c1cc2ccc(C3=CCCN(C(=O)Cc4cccc(OCc5ccccc5)c4)C3)cc2[nH]1 [Example I-107]	10000 to 100000 nM	–
CN(C)C(=O)c1cc2cc(C3=CCCN(C(=O)CCc4cnccn4)C3)ccc2o1 [Example I-216]	10000 to 100000 nM	–
COc1cnccc1-c1cc(C(=O)N2CCN(c3ncc(F)cc3OC)CC2)cc2cc(C3=CCCN(C(=O)CCn4ccnn4)C3)n(CC3CC3)c12 [Example I-729]	< 100 nM	–
COc1ccccc1-c1cc(C2=CCCN(C(=O)CCn3ccnn3)C2)c(F)c2[nH]c(C(=O)N3CCN(c4c(C)c5ccccc5n4CC4CC4)CC3)cc12 [Example I-1345]	–	1000 to 10000 nM

Compound	IC50 (30 minutes at room temperature)	IC50 (30 minutes room temperature)
CN(C)C(=O)c1cc2ccc(C3=CCCN(C(=O)C(c4ccc(F)cc4)c4ccc(F)cc4)C3)cc2[nH]1 [Example I-160]	1000 to 10000 nM	–
CCC[C@@H](C(=O)N1CCC=C(c2ccc3cc(C(=O)N(C)C)[nH]c3c2)C1)N1Cc2ccccc2C1=O [Example I-96]	10000 to 100000 nM	–
COc1cnccc1-c1cc(C2=CCCN(C(=O)CCn3ccnn3)C2)c(F)c2[nH]c(C(=O)N3CCN(c4ncc(Cl)cc4OC)CC3)cc12 [Example I-457]	< 100 nM	–
O=C(CCn1ccnn1)N1CCC=C(c2ccc3cc(C(=O)N4CCCCC4)[nH]c3c2)C1 [Example I-123]	100 to 1000 nM	–
CCc1ccc(-c2cc(C(=O)N3Cc4cnn(C)c4C3)cc3cc(C4=CCCN(C(=O)CC(=O)O)C4)n(CC(C)C)c23)c(C)n1 [Example I-1223]	–	< 100 nM
COc1ccccc1-c1cc(C2=CCCN(C(=O)CCn3ccnn3)C2)c(F)c2[nH]c(C(=O)Nc3ccnn3C)cc12 [Example I-993]	100 to 1000 nM	–
COc1cccnc1N1CCN(C(=O)c2cc3c(-n4nc(C)cc4C)cc(C4=CCCN(C(=O)CCn5ccnn5)C4)c(F)c3[nH]2)CC1 [Example I-586]	< 100 nM	–
CCc1ccc(-c2cc(C(=O)N3Cc4cnn(CC)c4C3)cc3cc(C4=CCCN(C(=O)CC(=O)O)C4)n(CC(C)C)c23)c(C)n1 [Example I-801]	> 100000 nM	–
COc1ccccc1-c1cc(C2CCCN(C(=O)CCn3ccnn3)C2)c(F)c2[nH]c(C(=O)N(C)C)cc12 (stereo not drawn) [Example I-1193]	< 100 nM	–
COc1ccccc1-c1cc(C2=CCCN(C(=O)CCn3ccnn3)C2)c(F)c2[nH]c(C(=O)N3CCN(c4cc5ccccc5cn4)CC3)cc12 [Example I-1444]	–	< 100 nM
COc1cc(F)ccc1-c1cc(C2=CCCN(C(=O)CCn3ccnn3)C2)c(F)c2[nH]c(C(=O)N3CCN(c4ncccc4OC4CC4)CC3)cc12 [Example I-594]	< 100 nM	–
CC(=O)N1CCC=C(c2cc(-c3nc4ccccc4[nH]3)c3cc(C(=O)N(C)C)[nH]c3c2F)C1 [Example I-1562]	–	100 to 1000 nM
O=C(CCn1ccnn1)N1CCC=C(c2cc(-c3ccccc3F)c3cc(C(=O)N4CCN(c5ncccc5OC5CC5)CC4)[nH]c3c2F)C1 [Example I-343]	< 100 nM	–
CCc1ccccc1-c1cc(C2=CCCN(C(=O)CCn3ccnn3)C2)c(F)c2[nH]c(C(=O)N3CCN(c4ncccc4OC)CC3)cc12 [Example I-562]	< 100 nM	–
COc1ccccc1-c1cc(C2=CCCN(C(=O)CCn3ccnn3)C2)c(F)c2[nH]c(C(=O)N3CCc4c(cnn4C)C3)cc12 [Example I-518]	< 100 nM	–
COc1cccc(/C=C/c2cc(C3=CCCN(C(=O)CCn4ccnn4)C3)c(F)c3[nH]c(C(=O)N4CCN(c5ncc(F)cc5OC)CC4)cc23)c1 [Example I-1129]	< 100 nM	–
COc1ccccc1N1CCN(C(=O)c2cc3c(-c4cnccc4OC(F)F)cc(C4=CCCN(C(=O)CCn5ccnn5)C4)c(F)c3[nH]2)CC1 [Example I-426]	< 100 nM	–
O=C(CCn1ccnn1)N1CCC=C(c2ccc3cc(C(=O)N4CCC4)[nH]c3c2)C1 [Example I-125]	1000 to 10000 nM	–
COc1ccncc1-c1cc(C2=CCCN(C(=O)CCn3ccnn3)C2)c(F)c2[nH]c(C(=O)N3Cc4cnn(C)c4C3)cc12 [Example I-496]	> 100000 nM	–
CN(C)C(=O)c1cc2cc(C3=CCCN(C(=O)CCn4ccnn4)C3)cc(NC3CCN(c4ccccn4)CC3)c2o1 [Example I-1499]	–	< 100 nM
COc1cccnc1N1CCN(C(=O)c2cc3c(-c4cccc(F)c4OC)cc(C4=CCCN(C(=O)CCn5ccnn5)C4)c(F)c3[nH]2)CC1 [Example I-399]	< 100 nM	–
COc1cc(-c2cc(C3=CCCN(C(C)=O)C3)c(F)c3[nH]c(C(=O)N(C)C)cc23)cc(OC)c1OC [Example I-1504]	–	100 to 1000 nM
CC(=O)N1CCC=C(c2cc(-c3ccccc3C)c3cc(C(=O)N(C)C)[nH]c3c2F)C1 [Example I-890]	100 to 1000 nM	–
CN(C)C(=O)c1cc2ccc(C3=CCCN(C(=O)c4cccnc4CS(C)(=O)=O)C3)cc2[nH]1 [Example I-69]	10000 to 100000 nM	–
CN(C)C(=O)c1cc2c(-c3cc[nH]c(=O)c3)cc(C3=CCCN(C(=O)CCn4ccnn4)C3)c(F)c2[nH]1 [Example I-1631]	–	< 100 nM
COc1ccncc1-c1cc(C2CN(C(=O)CCn3ccnn3)CC(F)(F)C2)c(F)c2[nH]c(C(=O)N3CCN(c4ncc(F)cc4OC)CC3)cc12 (stereo not drawn) [Example I-513]	< 100 nM	–
COc1ccccc1-c1cc(C2=CCCN(C(=O)C(C)C)C2)c(F)c2[nH]c(C(=O)N(C)C)cc12 [Example I-837]	100 to 1000 nM	–

Reference: patent US20250214977A1, “STAT6 INHIBITORS AND USES THEREOF” (Kymera Therapeutics, Inc., priority 2024, published 2025)
